{"source": "PubChem BioAssay AID686979", "about": "(National Center for Advancing Translational Sciences (NCATS), 2013)", "note": "In all, about 420,000 compounds went through this assay and about 50,000 (12%) were called active. Inconclusive results, whose numbers are uncertain, are shown with a selection of clear calls. Calls come from the whole dose curve; as a rule, active = well fitted inhibition curve with a large enough effect; inconclusive = small, poorly fitted or top-dose-only effect; inactive = flat fitted curve, though single readings scatter. Potencies of inconclusive entries are left out as doubtful fits.", "data": [{"test": "qHTS for Inhibitors of human tyrosyl-DNA phosphodiesterase 1 (TDP1): qHTS in cells in presence of CPT; note: nearly all actives have a fitted effect of over 55% in size; note: potency is the fitted concentration of half-maximal effect; tags give direction and shape of the fitted curve", "settings": "chicken DT40 Tdp1-/-;hTDP1 cells + 20 nM CPT, ATP luminescence, 48 h; series mostly up to 46.2 µM", "method_in_brief": "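Chicken DT40 Tdp1-/- cells stably complemented with human TDP1 were seeded at 400 cells/well in medium containing 20 nM camptothecin, exposed to pin-transferred compounds, and grown at 37 °C for at least 48 hr. Viability was read as ATP luminescence.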", "values": [{"compound": "CCN1CCN(CC(=O)N2CCCC(C(=O)c3ccc(Oc4ccccc4)cc3)C2)CC1", "note": "(stereo not drawn)", "Potency": "inconclusive [inhibitor, single point]"}, {"compound": "COC(=O)c1c(NC(=O)CSc2nnc3ccccn23)sc2c1CCC2", "Potency": "inconclusive [inhibitor, single point]"}, {"compound": "Cc1cccc(CCNS(=O)(=O)c2ccc3c(c2)CCN3C(=O)CCC(=O)O)c1", "Potency": "inactive"}, {"compound": "CCOC(=O)C1=C(C)Nc2nc(=S)[nH]n2C1c1ccc(Cl)cc1", "note": "(stereo not drawn)", "Potency": "inconclusive [inhibitor, single point]"}, {"compound": "Cc1cccc(NC(=O)C2CCCN(S(=O)(=O)c3ccc4[nH]c(=O)ccc4c3)C2)n1", "note": "(stereo not drawn)", "Potency": "inconclusive [inhibitor, single point]"}, {"compound": "O=C1C2CCCN2C(=O)N1CCCN1CCN(c2cccc(Br)c2)CC1", "note": "(stereo not drawn)", "Potency": "inactive"}, {"compound": "COc1cc(OC)cc(C2=Cc3ccccc3C(CC(=O)c3ccco3)N2c2ccc(-c3cccnc3)cc2)c1", "note": "(stereo not drawn)", "Potency": "inconclusive [inhibitor, single point]"}, {"compound": "CCCn1nc(C(=O)NNC(=O)Cc2ccc(S(=O)(=O)N3CCOCC3)s2)c2ccccc2c1=O", "Potency": "inactive"}, {"compound": "CN(C)c1ncnc2c1ccn2C1OC(CO)C(O)C1O", "note": "(stereo not drawn)", "Potency": "active: 3.26 µM"}, {"compound": "Cc1ccccc1C1(CC(=O)N2CCCC2c2nccs2)CC(=O)N(C2CCCC2)C1=O", "note": "(stereo not drawn)", "Potency": "inconclusive [inhibitor, single point]"}, {"compound": "Cc1ccc(C(=O)O)cc1[N+](=O)[O-]", "Potency": "inactive"}, {"compound": "Cn1c(=O)c2c(nc(NCc3ccco3)n2CC(O)COc2ccccc2)n(C)c1=O", "note": "(stereo not drawn)", "Potency": "inconclusive [inhibitor, partial curve, poor fit]"}, {"compound": "CSc1ccccc1OCc1cc(C(=O)NCC(C)Oc2cccnc2)no1", "note": "(stereo not drawn)", "Potency": "inconclusive [inhibitor, single point]"}, {"compound": "Cc1ccc(S(=O)(=O)N2CCN(c3nc(-c4cnccn4)nc4ccccc34)CC2)cc1", "Potency": "inconclusive [inhibitor, single point]"}, {"compound": "O=C(NCc1ccco1)c1ccc([N+](=O)[O-])o1", "Potency": "inconclusive [inhibitor, single point]"}, {"compound": "CCOc1ccc(C(=O)CC(Sc2ccc(C)cc2)C(=O)O)cc1", "note": "(stereo not drawn)", "Potency": "inconclusive [inhibitor, single point]"}, {"compound": "COc1cccc(C(=O)Nc2ccc(NC(=O)c3cc4ccccc4o3)c(OC)c2)c1", "Potency": "inactive"}, {"compound": "N/C(Cc1ccc(Cl)cc1)=N\\OC(=O)c1cccc2ccccc12", "Potency": "inconclusive [inhibitor, single point]"}, {"compound": "COc1ccc(/C=C2\\SC(N3CCCCC3)=NC2=O)cc1OC", "Potency": "inactive"}, {"compound": "CCc1nnc(SCC(=O)Nc2cc(Cl)c(OC)cc2OC)c2cc3oc(C)cc3n12", "Potency": "inconclusive [inhibitor, single point]"}, {"compound": "COc1cccc(N2CC(NC(=O)COc3ccc4ccccc4c3)CC2=O)c1", "note": "(stereo not drawn)", "Potency": "inconclusive [inhibitor, single point]"}, {"compound": "O=C(N/N=C/c1cccc(Oc2ccccc2)c1)c1cccc(O)c1", "Potency": "inconclusive [inhibitor, single point]"}, {"compound": "CC(=O)c1cccc(S(=O)(=O)N2CCCC(c3nc(-c4ccc(C)o4)no3)C2)c1", "note": "(stereo not drawn)", "Potency": "active: 18.4 µM"}, {"compound": "O=C(N/N=C/c1ccc(Br)o1)/C(=C/c1ccc([N+](=O)[O-])cc1)NC(=O)c1ccccc1", "Potency": "inactive"}, {"compound": "CSc1ccc(S(=O)(=O)N2CCC(C(=O)Nc3ccccc3C(F)(F)F)CC2)cc1", "Potency": "inactive"}, {"compound": "COC(=O)[C@H]1C[C@H](OC(=O)Nc2cccs2)[C@@]2(O)CN(S(=O)(=O)c3ccc(C)cc3)CC2[C@H]1C(=O)OC", "note": "(stereo partly drawn)", "Potency": "inconclusive [inhibitor, single point]"}, {"compound": "Cc1noc2nc(C(=O)O)nc(N3CCCCC3)c12", "Potency": "inconclusive [inhibitor, single point]"}, {"compound": "O=C(CCC1CCCC1)NCCCN1CCOCC1", "Potency": "inactive"}, {"compound": "COc1ccc(OC)c(-c2noc(CSc3nnc(Cc4ccccc4)n3-c3cccc(C)c3)n2)c1", "Potency": "active: 18.4 µM"}, {"compound": "NNC(=O)c1ccc(COc2ccc3ccccc3c2)cc1", "Potency": "inconclusive [inhibitor, partial curve]"}, {"compound": "COc1ccc(C(=O)OCn2nnc3ccccc3c2=O)cc1OC", "Potency": "inconclusive [inhibitor, partial curve]"}, {"compound": "COc1cccc(C(=O)Nc2cccc3ccccc23)c1", "Potency": "inconclusive [inhibitor, single point]"}, {"compound": "CCOC(=O)Cc1c(C)nc2c(-c3ccc(Cl)cc3)cnn2c1C", "Potency": "inconclusive [inhibitor, single point]"}, {"compound": "CCC(C)(C)n1nnnc1CN1CCN(c2nc3cc(OC)ccc3cc2C#N)CC1", "Potency": "inconclusive [inhibitor, single point]"}, {"compound": "COc1ccccc1N1CCN(CC(=O)Nc2cccc(F)c2)CC1", "Potency": "inconclusive [inhibitor, full curve, poor fit]"}, {"compound": "COCc1c(C(=O)NC2CCCCC2)sc2cccc(F)c12", "Potency": "inconclusive [inhibitor, single point]"}, {"compound": "COc1ccc(CCN2C(=O)c3ccccc3C2c2nnnn2-c2c(C)cccc2C)cc1OC", "note": "(stereo not drawn)", "Potency": "active: 23.1 µM"}, {"compound": "O=C(CCN1CCN(c2ccccc2)CC1)Nc1ccc(OCc2ccccc2)cc1", "Potency": "inconclusive [inhibitor, single point]"}, {"compound": "CC(=O)c1ccc(NC(=O)CCn2nc(C)c(S(=O)(=O)N3CCC(C)CC3)c2C)cc1", "Potency": "inconclusive [inhibitor, single point]"}, {"compound": "N#Cc1ccccc1CSc1ccc(-c2nc3ccccc3[nH]2)cn1", "Potency": "inconclusive [inhibitor, partial curve]"}, {"compound": "CN1CCN(c2ncc3nc(-c4ccc(Cl)cc4)c(=O)n(C)c3n2)CC1", "Potency": "active: 20.6 µM"}, {"compound": "Cc1cc2c3c(c1C)C1(C(=O)N3C(C)(C)CC2C)C(C#N)=C(N)Oc2cc(O)ccc21", "note": "(stereo not drawn)", "Potency": "inconclusive [inhibitor, single point]"}, {"compound": "CNCCCOc1cccc(Oc2ccccc2)c1", "Potency": "inconclusive [inhibitor, single point]"}, {"compound": "CCCCCCn1c(=O)n2n(c1=O)[C@@H]1CN(S(=O)(=O)c3ccc(C)cc3)C[C@]1(O)[C@@H](OC(=O)NCc1ccccc1F)C2", "Potency": "inconclusive [inhibitor, single point]"}, {"compound": "CN(C)Cc1c(C(=O)N/N=C/c2ccncc2)nnn1-c1nonc1N", "Potency": "inactive"}, {"compound": "CCOC(=O)C1=C(C)N(C)C(=S)NC1c1cccc(Cl)c1Cl", "note": "(stereo not drawn)", "Potency": "inactive"}, {"compound": "Cc1cc(C(=O)COC(=O)c2ccc(O)cc2O)c(C)n1-c1ccc(OC(F)F)cc1", "Potency": "active: 20.6 µM"}, {"compound": "CCOCC(=O)Nc1cc(Cl)ccc1C", "Potency": "inactive"}, {"compound": "Cc1cc(S(=O)(=O)N2CCC3(CC2)OCCO3)c(C)cc1Cl", "Potency": "inconclusive [inhibitor, single point]"}, {"compound": "CN(CC(=O)O/N=C(\\N)c1ccc([N+](=O)[O-])cc1)S(=O)(=O)c1ccccc1", "Potency": "inconclusive [inhibitor, single point]"}, {"compound": "CC(C)c1cnc2c(c1SCc1cccc(C(F)(F)F)c1)c(=O)n(C)c(=O)n2C", "Potency": "inconclusive [inhibitor, single point]"}, {"compound": "COc1nc(Nc2ccc([N+](=O)[O-])cc2)nc(NC2CCCCC2)n1", "Potency": "inconclusive [inhibitor, single point]"}, {"compound": "CCOC(=O)N1CCN(S(=O)(=O)c2ccc(-n3cnnn3)cc2)CC1", "Potency": "inactive"}, {"compound": "O=C(COC(=O)c1ccc(O)cc1O)NC12CC3CC(CC(C3)C1)C2", "Potency": "inconclusive [inhibitor, single point]"}, {"compound": "CCOC(=O)C1CCN(C(=O)c2ccc3nc(-c4ccc(OC)cc4)c(-c4ccc(OC)cc4)nc3c2)CC1", "Potency": "inconclusive [inhibitor, single point]"}, {"compound": "CC(=O)Nc1ccc(NC(=O)c2cc(C3CC3)nc3c2cnn3C(C)C)cc1", "Potency": "active: 29.1 µM"}, {"compound": "CCn1cc(C(=O)OC)c(=O)c2cc(S(=O)(=O)N(C)C3CCCCC3)ccc21", "Potency": "inconclusive [inhibitor, partial curve, poor fit]"}, {"compound": "Cc1ccc(-n2c(=O)c3ccc(C(=O)NCc4ccco4)cc3n(Cc3cccc(Cl)c3)c2=O)cc1", "Potency": "inactive"}, {"compound": "Cc1nnc(NC(=O)CSc2nc3[nH]ncc3c(=O)[nH]2)s1", "Potency": "inconclusive [inhibitor, single point]"}, {"compound": "CCOC(=O)C1(C)CCN1C(=O)c1ccc(OC)c(F)c1", "note": "(stereo not drawn)", "Potency": "inactive"}, {"compound": "O=C1[C@H](Cc2ccccc2)NCC=CC[C@H](c2ccco2)N1Cc1ccccc1", "Potency": "active: 20.6 µM"}, {"compound": "Cc1ccc(NS(=O)(=O)c2cccc(C(=O)NCC3CCCO3)c2)cc1", "note": "(stereo not drawn)", "Potency": "inactive"}, {"compound": "COc1cccc(C2=Nc3cccc4cccc(c34)N2)c1", "Potency": "inconclusive [inhibitor, single point]"}, {"compound": "Cc1sc2ncnc(N3CCC(C(=O)Nc4sc5c(c4C(N)=O)CCC(C)C5)CC3)c2c1C", "note": "(stereo not drawn)", "Potency": "inconclusive [inhibitor, single point]"}, {"compound": "Cc1ccc(N2C(N)=C(C#N)C3(C(=O)N(C)c4ccccc43)C3=C2CC(C)(C)CC3=O)cc1Cl", "note": "(stereo not drawn)", "Potency": "inconclusive [inhibitor, single point]"}, {"compound": "Cc1ccc(NC(=O)COC(=O)CCc2nc3ccccc3c(=O)[nH]2)cc1Cl", "Potency": "inactive"}, {"compound": "C#CCn1cc2c(c1-c1ccccc1)c(=O)n(C)c(=O)n2C", "Potency": "active: 16.4 µM"}, {"compound": "CCNC(=O)CN(c1ccc(F)cc1)S(=O)(=O)c1ccc2c(c1)OCCO2", "Potency": "inactive"}]}]}
